# In the supplement of paper PMC12067093, “Discovery and optimisation of a covalent ligand for TRIM25 and its application to targeted protein ubiquitination” (Chemical Science, 2025):
# Of roughly 21,000 targets only a part is listed; those with the largest changes were picked by preference.
# Compound: CC1Cc2ccccc2N1C(=O)C1CCCN(C1)C(=O)CCl (mixture of isomers) [TRIM25 ligand 11 (diastereomer mixture)]
# Experiment: probe-labelled cysteine peptide fold change vs DMSO (competition) (log2 fold change); higher = less target engagement (more negative = stronger competition)
# Settings: 10 µM; THP-1; incubation time: 4 h
# 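Further: competitive chemoproteomic profiling in live THP-1 cells with an iodoacetamide desthiobiotin (IA-DTB) probe, comparing probe-labelled peptide intensities in compound-treated cells against DMSO-treated controls.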
# Chain of UniProt O75083 (O75083 whole entry, looked up): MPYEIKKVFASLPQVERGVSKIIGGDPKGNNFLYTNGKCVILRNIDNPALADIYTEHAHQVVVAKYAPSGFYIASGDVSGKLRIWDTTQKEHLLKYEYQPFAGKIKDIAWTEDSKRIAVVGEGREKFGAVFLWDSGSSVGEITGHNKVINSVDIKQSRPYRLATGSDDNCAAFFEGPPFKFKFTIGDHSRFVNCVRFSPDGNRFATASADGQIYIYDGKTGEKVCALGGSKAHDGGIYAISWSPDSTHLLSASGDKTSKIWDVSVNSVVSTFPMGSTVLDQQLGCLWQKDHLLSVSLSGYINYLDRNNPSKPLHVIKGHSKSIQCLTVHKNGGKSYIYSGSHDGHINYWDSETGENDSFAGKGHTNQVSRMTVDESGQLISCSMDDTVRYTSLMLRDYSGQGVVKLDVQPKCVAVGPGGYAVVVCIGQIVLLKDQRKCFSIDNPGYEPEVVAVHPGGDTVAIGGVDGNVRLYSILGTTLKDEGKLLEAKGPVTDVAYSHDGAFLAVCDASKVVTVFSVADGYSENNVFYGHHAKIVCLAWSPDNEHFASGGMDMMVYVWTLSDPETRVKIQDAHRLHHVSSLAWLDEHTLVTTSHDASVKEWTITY
# Chain of UniProt Q8N806 (Q8N806 whole entry, looked up): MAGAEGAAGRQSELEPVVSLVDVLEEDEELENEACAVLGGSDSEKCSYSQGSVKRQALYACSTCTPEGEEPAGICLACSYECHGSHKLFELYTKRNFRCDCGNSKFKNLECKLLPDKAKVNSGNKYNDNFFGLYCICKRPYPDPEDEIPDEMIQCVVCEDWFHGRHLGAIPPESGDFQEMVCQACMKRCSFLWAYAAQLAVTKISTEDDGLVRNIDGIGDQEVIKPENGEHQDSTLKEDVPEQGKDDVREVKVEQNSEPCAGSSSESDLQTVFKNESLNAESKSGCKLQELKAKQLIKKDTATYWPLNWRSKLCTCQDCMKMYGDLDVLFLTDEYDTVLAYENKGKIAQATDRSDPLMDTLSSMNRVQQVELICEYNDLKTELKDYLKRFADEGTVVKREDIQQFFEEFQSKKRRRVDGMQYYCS
# Chain of UniProt Q6IBS0 (Q6IBS0 whole entry, looked up): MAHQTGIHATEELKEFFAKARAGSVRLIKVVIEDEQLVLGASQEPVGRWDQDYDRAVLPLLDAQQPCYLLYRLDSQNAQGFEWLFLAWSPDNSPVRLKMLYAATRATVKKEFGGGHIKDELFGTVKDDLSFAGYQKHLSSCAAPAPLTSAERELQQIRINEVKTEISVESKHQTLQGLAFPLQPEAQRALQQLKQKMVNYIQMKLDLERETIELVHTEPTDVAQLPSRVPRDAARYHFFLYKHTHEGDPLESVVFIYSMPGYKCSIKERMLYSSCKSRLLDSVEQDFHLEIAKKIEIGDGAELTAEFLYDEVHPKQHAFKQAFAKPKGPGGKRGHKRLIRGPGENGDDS
# Chain of UniProt Q6RFH5 (Q6RFH5 whole entry, looked up): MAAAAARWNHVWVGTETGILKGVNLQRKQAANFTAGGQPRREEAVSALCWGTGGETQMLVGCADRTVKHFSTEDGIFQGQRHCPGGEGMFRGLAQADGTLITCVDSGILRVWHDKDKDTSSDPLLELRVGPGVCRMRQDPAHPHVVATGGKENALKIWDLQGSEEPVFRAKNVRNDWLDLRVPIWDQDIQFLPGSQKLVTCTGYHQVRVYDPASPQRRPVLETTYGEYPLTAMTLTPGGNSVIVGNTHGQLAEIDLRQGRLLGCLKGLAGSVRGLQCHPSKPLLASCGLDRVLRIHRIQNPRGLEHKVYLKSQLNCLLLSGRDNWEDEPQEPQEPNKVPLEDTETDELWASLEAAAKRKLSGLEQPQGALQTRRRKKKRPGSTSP
# Chain of UniProt Q96AX1 (Q96AX1 whole entry, looked up): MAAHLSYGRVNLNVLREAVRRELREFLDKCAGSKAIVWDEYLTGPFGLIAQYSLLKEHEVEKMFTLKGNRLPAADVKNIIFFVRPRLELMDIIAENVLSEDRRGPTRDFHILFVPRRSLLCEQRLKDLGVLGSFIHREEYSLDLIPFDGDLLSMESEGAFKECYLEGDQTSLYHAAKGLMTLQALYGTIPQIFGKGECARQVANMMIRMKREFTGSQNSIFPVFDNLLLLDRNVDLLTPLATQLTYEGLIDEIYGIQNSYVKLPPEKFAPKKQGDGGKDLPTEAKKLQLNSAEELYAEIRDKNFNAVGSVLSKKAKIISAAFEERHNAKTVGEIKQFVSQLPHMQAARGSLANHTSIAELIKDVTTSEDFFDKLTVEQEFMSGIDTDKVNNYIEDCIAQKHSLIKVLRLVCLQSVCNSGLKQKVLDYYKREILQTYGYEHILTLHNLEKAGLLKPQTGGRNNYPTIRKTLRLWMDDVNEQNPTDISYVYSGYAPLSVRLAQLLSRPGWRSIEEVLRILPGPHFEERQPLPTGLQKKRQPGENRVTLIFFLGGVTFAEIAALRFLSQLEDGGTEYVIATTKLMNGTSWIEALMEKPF
# Chain of UniProt P40818 (P40818 whole entry, looked up): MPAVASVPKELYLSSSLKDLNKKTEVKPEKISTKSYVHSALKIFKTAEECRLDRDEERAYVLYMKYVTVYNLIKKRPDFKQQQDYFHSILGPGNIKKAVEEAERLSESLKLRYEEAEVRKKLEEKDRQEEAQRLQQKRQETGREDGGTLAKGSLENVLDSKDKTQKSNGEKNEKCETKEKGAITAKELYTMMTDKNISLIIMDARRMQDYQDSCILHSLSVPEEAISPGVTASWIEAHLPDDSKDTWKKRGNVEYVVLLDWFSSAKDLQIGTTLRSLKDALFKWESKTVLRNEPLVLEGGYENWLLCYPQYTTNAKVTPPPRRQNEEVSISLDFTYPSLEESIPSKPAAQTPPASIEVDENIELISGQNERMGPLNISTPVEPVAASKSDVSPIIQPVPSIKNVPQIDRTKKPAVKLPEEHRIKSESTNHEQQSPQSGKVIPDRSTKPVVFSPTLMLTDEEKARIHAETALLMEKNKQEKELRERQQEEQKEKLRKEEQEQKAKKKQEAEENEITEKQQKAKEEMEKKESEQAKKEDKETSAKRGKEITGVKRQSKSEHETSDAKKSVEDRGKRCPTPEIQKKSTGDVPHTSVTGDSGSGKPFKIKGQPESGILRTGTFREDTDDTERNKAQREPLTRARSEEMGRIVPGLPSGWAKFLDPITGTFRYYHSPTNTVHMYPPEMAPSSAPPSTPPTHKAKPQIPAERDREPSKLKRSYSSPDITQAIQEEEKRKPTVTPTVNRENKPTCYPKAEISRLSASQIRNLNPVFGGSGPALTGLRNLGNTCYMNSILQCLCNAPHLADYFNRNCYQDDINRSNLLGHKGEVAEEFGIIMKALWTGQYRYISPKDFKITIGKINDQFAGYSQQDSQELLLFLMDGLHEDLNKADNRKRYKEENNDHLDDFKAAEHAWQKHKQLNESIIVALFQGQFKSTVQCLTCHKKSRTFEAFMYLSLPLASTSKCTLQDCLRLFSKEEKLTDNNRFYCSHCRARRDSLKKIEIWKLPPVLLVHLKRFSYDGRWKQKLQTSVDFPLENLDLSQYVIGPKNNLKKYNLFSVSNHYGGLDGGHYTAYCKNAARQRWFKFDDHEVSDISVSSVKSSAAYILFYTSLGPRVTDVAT
# Chain of UniProt Q9Y5T5 (Q9Y5T5 whole entry, looked up): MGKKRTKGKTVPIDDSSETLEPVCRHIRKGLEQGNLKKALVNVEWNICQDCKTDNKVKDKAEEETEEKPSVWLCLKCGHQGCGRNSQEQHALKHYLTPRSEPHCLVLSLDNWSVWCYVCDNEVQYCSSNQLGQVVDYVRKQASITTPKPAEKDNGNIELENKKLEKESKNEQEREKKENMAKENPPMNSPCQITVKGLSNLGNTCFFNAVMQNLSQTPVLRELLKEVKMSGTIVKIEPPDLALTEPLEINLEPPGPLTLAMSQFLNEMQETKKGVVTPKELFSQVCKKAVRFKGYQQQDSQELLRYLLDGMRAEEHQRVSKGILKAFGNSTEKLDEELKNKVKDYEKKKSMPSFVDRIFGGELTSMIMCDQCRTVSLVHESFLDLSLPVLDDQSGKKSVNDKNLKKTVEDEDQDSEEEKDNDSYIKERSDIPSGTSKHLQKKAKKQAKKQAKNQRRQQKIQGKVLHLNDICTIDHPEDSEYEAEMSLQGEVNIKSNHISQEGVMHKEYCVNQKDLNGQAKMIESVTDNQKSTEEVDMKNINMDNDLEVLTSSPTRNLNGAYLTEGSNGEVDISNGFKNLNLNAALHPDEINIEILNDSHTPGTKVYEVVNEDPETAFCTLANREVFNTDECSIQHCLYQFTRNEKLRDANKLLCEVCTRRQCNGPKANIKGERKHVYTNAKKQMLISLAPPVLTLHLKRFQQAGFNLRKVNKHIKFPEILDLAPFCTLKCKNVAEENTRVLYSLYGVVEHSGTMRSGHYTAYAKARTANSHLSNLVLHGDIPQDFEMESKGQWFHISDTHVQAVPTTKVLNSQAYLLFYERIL
# Chain of UniProt Q16763 (Q16763 whole entry, looked up): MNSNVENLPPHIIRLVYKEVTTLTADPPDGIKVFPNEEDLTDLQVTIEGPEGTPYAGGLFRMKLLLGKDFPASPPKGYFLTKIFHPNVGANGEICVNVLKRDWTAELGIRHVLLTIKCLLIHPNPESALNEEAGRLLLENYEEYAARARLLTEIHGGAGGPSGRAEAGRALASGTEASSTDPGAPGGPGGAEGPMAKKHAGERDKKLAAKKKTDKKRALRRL
# Chain of UniProt Q8IV63 (Q8IV63 whole entry, looked up): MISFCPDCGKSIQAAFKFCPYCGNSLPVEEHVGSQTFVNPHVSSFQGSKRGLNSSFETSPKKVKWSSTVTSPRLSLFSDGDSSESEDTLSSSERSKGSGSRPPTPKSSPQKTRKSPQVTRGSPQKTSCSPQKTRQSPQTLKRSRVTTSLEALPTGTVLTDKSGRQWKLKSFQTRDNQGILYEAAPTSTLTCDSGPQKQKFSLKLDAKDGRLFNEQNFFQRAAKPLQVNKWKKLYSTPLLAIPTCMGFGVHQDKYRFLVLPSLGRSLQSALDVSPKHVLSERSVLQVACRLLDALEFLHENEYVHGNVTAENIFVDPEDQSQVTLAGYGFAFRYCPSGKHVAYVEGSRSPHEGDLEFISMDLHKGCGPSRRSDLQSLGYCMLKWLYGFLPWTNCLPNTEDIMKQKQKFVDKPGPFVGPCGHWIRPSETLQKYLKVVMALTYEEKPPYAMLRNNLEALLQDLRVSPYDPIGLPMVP
row,Target,probe-labelled cysteine peptide fold change
1,UBA6_A0AVT1_455_ACIGDTLCQK,0.0745
2,TUBGCP6_Q96RT7_640_DCAVYVGR (UniProt Q96RT7),0.0361
3,UHRF1BP1L_A0JNW5_647_SCDNFNLLHPIFQR (UniProt A0JNW5),0.0486
4,WDR82_Q6UXN9_153_PVCSFDPEGLIFAAGVNSEMVK (UniProt Q6UXN9),-0.0208
5,TWF2_Q6IBS0_67_AVLPLLDAQQPCYLLYR (UniProt Q6IBS0),-0.0438
6,TUT7_Q5VYS8_1008_FLNILDQVCIQCYK (UniProt Q5VYS8),0.0777
7,UNK_Q9C0B0_696_ASAAGAECELAR (UniProt Q9C0B0),-0.00765
8,UGDH_O60701_27_ICCIGAGYVGGPTCSVIAHMCPEIR (UniProt O60701),0.0264
9,UBE2S_Q16763_118_CLLIHPNPESALNEEAGR (UniProt Q16763),0.0159
10,WDR74_Q6RFH5_201_LVTCTGYHQVR (UniProt Q6RFH5),-0.0882
11,UBR7_Q8N806_155+158_RPYPDPEDEIPDEMIQCVVCEDWFHGR (UniProt Q8N806),-0.0226
12,USP8_P40818_962_CTLQDCLR (UniProt P40818),0.0281
13,TTF1_Q15361_445_KTQACLASK (UniProt Q15361),-0.0195
14,VRK3_Q8IV63_244_LYSTPLLAIPTCMGFGVHQDK (UniProt Q8IV63),-0.0261
15,WDR1_O75083_438_KCFSIDNPGYEPEVVAVHPGGDTVAIGGVDGNVR (UniProt O75083),-0.415
16,USP16_Q9Y5T5_631_EVFNTDECSIQHCLYQFTR (UniProt Q9Y5T5),0.0427
17,TSC2_P49815_414_CADQRPESSLLNLISYR (UniProt P49815),0.037
18,VPS33A_Q96AX1_416_LVCLQSVCNSGLK (UniProt Q96AX1),0.136

# Same assay, conditions: 50 µM; THP-1; incubation time: 4 h
row,Target,probe-labelled cysteine peptide fold change
1,UBA6_A0AVT1_455_ACIGDTLCQK,0.0509
2,TUBGCP6_Q96RT7_640_DCAVYVGR (UniProt Q96RT7),0.0424
3,UHRF1BP1L_A0JNW5_647_SCDNFNLLHPIFQR (UniProt A0JNW5),-0.169
4,WDR82_Q6UXN9_153_PVCSFDPEGLIFAAGVNSEMVK (UniProt Q6UXN9),0.122
5,TWF2_Q6IBS0_67_AVLPLLDAQQPCYLLYR (UniProt Q6IBS0),0.311
6,TUT7_Q5VYS8_1008_FLNILDQVCIQCYK (UniProt Q5VYS8),0.138
7,UNK_Q9C0B0_696_ASAAGAECELAR (UniProt Q9C0B0),-0.0535
8,UGDH_O60701_27_ICCIGAGYVGGPTCSVIAHMCPEIR (UniProt O60701),-0.0868
9,UBE2S_Q16763_118_CLLIHPNPESALNEEAGR (UniProt Q16763),0.149
10,WDR74_Q6RFH5_201_LVTCTGYHQVR (UniProt Q6RFH5),-0.107
11,UBR7_Q8N806_155+158_RPYPDPEDEIPDEMIQCVVCEDWFHGR (UniProt Q8N806),-0.254
12,USP8_P40818_962_CTLQDCLR (UniProt P40818),0.116
13,TTF1_Q15361_445_KTQACLASK (UniProt Q15361),-0.0681
14,VRK3_Q8IV63_244_LYSTPLLAIPTCMGFGVHQDK (UniProt Q8IV63),-0.132
15,WDR1_O75083_438_KCFSIDNPGYEPEVVAVHPGGDTVAIGGVDGNVR (UniProt O75083),-0.364
16,USP16_Q9Y5T5_631_EVFNTDECSIQHCLYQFTR (UniProt Q9Y5T5),-0.182
17,TSC2_P49815_414_CADQRPESSLLNLISYR (UniProt P49815),0.0711
18,VPS33A_Q96AX1_416_LVCLQSVCNSGLK (UniProt Q96AX1),0.236
